Several values for one entry are separate records, joined by “and”; a condition that tells them apart may be missing. Equal entries are not always repeated. Screen size: about 270,000 compounds; about 5,800 (2.1%) were called active. The shares of active, inactive and inconclusive entries below differ from those in the screen. Calls come from the whole dose curve; as a rule, active = well fitted inhibition curve with a large enough effect; inconclusive = small, poorly fitted or top-dose-only effect; inactive = flat fitted curve, though single readings scatter. Potencies of inconclusive entries are doubtful fits and often do not repeat.
Target: Microtubule-associated protein tau (Homo sapiens) (UniProt P10636)
UniProt P10636, sequence (P10636 whole entry, looked up): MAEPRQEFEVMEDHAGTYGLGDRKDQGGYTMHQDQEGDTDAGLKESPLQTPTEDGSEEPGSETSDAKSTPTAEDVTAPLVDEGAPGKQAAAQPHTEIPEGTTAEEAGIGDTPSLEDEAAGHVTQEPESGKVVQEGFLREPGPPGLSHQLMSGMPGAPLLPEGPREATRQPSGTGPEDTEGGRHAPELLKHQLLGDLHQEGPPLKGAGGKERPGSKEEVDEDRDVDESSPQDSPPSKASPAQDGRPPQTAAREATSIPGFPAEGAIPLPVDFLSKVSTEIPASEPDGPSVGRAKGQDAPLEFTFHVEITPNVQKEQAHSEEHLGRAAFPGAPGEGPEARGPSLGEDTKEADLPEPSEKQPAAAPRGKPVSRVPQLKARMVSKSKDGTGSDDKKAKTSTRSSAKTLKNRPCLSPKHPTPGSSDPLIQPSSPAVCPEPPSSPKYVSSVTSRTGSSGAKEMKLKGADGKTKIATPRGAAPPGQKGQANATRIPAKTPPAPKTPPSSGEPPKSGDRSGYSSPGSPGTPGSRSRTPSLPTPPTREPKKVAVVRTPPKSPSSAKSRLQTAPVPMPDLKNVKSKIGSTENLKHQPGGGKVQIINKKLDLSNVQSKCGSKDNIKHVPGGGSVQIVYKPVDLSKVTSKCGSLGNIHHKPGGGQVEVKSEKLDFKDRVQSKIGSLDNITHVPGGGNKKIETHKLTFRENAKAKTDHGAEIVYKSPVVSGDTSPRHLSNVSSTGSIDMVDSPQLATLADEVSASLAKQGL
Assay: qHTS for Inhibitors of Tau Fibril Formation, Thioflavin T Binding; note: nearly all actives have a fitted effect of over 55% in size
Conditions: recombinant tau K18 P301L (four-repeat tau fragment), heparin-induced fibrillization, ThT fluorescence; series mostly up to 57.4 µM
In short: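 Heparin-induced (20 uM) aggregation of recombinant human K18 P301L tau, 15 uM unlabeled with 0.24 uM labeled, pH 7 acetate buffer, 6 hr at 37 C with compound. Fibrils quantified by 30 uM ThT fluorescence after 1 hr ambient incubation.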
Potency is the fitted concentration of half-maximal effect; tags give direction and shape of the fitted curve.

Row | Compound | Potency
1 | Cc1ccc2c(=O)cc(C(=O)Nc3sc4c(c3C(=O)NCc3ccco3)CCC4)oc2c1 | inconclusive: 25.1 µM [inhibitor, single point]
2 | O=C1/C(=C/c2cccc([N+](=O)[O-])c2)CCc2ccccc21 | active: 25.1 µM
3 | Cc1c(N(C)C(=O)c2ccco2)c(=O)n(-c2ccccc2)n1C | inactive
4 | Cc1ccc(N=C/C(C(=O)C(F)(F)F)=C(\O)c2ccco2)cc1Cl | inconclusive: 10 µM [inhibitor, partial curve]
5 | O=C1C2CC=CCC2C(=O)N1c1ccc(N2CCN(c3ccccn3)CC2)c([N+](=O)[O-])c1 (stereo unspecified) | active: 14.1 µM
6 | CSc1ccc(/C=N/N2CCN(c3ccccc3)CC2)cc1 | inconclusive: 2.82 µM [inhibitor, full curve]
7 | Cc1ccc(S(=O)(=O)N[C@H]2COC(=O)C/C=C\[C@@H](C)[C@H](NS(=O)(=O)c3ccc(C)cc3)COC(=O)[C@H](C)NC(=O)C/C=C\[C@H]2C)cc1 | inconclusive: 0.398 µM [inhibitor, partial curve, poor fit]
8 | COc1cccc(C(=O)Nc2ccc(Cl)c(-c3nc4ccccc4[nH]3)c2)c1 | inconclusive: 7.94 µM [inhibitor, partial curve, poor fit]
9 | O=C1C2Sc3[nH]c(=O)sc3C(c3ccccc3)C2C(=O)N1c1ccc(Cl)cc1 (stereo unspecified) | inconclusive: 17.8 µM [inhibitor, partial curve]
10 | CCOC(=O)c1ccccc1NC(=O)N1CCn2c(C)ccc2C1CC (stereo unspecified) | inconclusive: 25.1 µM [inhibitor, partial curve]
11 | O=S1(=O)CCN(Cc2ccccc2C(F)(F)F)CC1 | inactive
12 | COc1ccc2c(c1)CC(NC(=O)Nc1cc(Cl)ccc1OC)CO2 (stereo unspecified) | inactive
13 | COc1ccc(C(C(N)=O)c2ncc(C(F)(F)F)cc2Cl)cc1OC (stereo unspecified) | inactive
14 | COCCn1c(SC(C)C(=O)Nc2ncc(Cl)cc2Cl)nc2ccccc21 (stereo unspecified) | inactive
15 | O=C(NCCn1cc(SCc2ccc(F)cc2)c2ccccc21)c1c(F)cccc1F | inactive and inconclusive: 17.8 µM [inhibitor, partial curve]
16 | O=C(NNC(=O)C1C2CCC(C2)C1C(=O)O)c1ccc(Cl)cc1 (stereo unspecified) | inconclusive: 6.31 µM [inhibitor, partial curve]
17 | COC(=O)C1C(c2ccccc2)C(C(=O)OCc2ccco2)C1c1ccccc1 (stereo unspecified) | inconclusive: 17.8 µM [inhibitor, single point]
18 | CCc1cc(C)cc(OCCNC(=O)c2cncc(Br)c2)c1 | inconclusive: 14.1 µM [inhibitor, partial curve, poor fit]
19 | C=C1OC(CO)(n2cnc3c(N)ncnc32)C(O)C1O (stereo unspecified) | inactive
20 | FC(F)(F)c1nnc(-c2ccccc2)nc1Sc1ccc(Cl)cc1 | inconclusive: 28.2 µM [inhibitor, single point]
21 | CCN1C(=O)c2cccc3c(NC(=O)c4ccc(S(=O)(=O)N5CCOCC5)cc4)ccc1c23 | inconclusive: 22.4 µM [inhibitor, partial curve]

Row | Compound | Potency
22 | Oc1ccc2c(c1)OCC1(O)Cc3cc(O)c(O)cc3C21 (stereo unspecified) | active: 22.4 µM
23 | CCCCc1cc(=O)oc2cc(C)c3c(C)coc3c12 | inconclusive: 8.91 µM [inhibitor, partial curve]
24 | Cc1c(/C=C/C(=O)c2ccc(O)cc2)cnn1C | inconclusive: 28.2 µM [inhibitor, single point]
25 | CCOC(=O)N1CCN(C(=O)CCSc2ccc(Cl)cc2)CC1 | inconclusive: 6.31 µM [inhibitor, partial curve]
26 | Cc1ccc(Cn2c(=O)n(-c3ccccc3)c(=O)c3ccc(C(=O)NCc4ccco4)cc32)cc1 | inconclusive: 3.98 µM [inhibitor, full curve] and inconclusive: 7.94 µM [inhibitor, partial curve]
27 | O=C(CCSCc1cnn(-c2ccccc2)c1-n1cccc1)NCc1ccccc1F | inactive
28 | CCOc1ccc(NC(=O)c2cc3c(-c4ccccc4F)nn(C)c3s2)cc1 | inconclusive: 1.12 µM [inhibitor, full curve]
29 | CC(C(=O)N1CCc2ccccc21)N1CCc2ccccc2C1 (stereo unspecified) | inconclusive: 31.6 µM [inhibitor, single point]
30 | CC(=O)C1=C(C)NC(SCC(=O)c2ccc(Cl)cc2Cl)=C(C#N)C1c1ccco1 (stereo unspecified) | inconclusive: 22.4 µM [inhibitor, single point]
31 | COc1ccnc(CSC(N)=Nc2cccc(C(F)(F)F)c2)c1 | active: 17.8 µM
32 | Cc1ccccc1NC(=O)c1ccc2nc(Cc3ccccc3)oc2c1 | inconclusive: 39.8 µM [inhibitor, single point]
33 | Cn1c(=O)c(C(=O)CSc2nnc(Nc3ccccc3)s2)c(N)n(Cc2ccccc2)c1=O | inconclusive: 7.08 µM [inhibitor, partial curve, poor fit]
34 | O=C(N/N=C/c1ccc[nH]1)c1ccc(O)cc1 | inconclusive: 28.2 µM [inhibitor, partial curve]
35 | Cc1nc(NC(=O)CC(C)C)sc1-c1csc(Nc2ccc(Cl)cc2)n1 | inconclusive: 12.6 µM [inhibitor, partial curve]
36 | Cc1ccc(Cl)cc1NC(=O)COC(=O)c1ccc(COc2ccc3c(C)cc(=O)oc3c2)cc1 | inconclusive: 0.562 µM [inhibitor, full curve]
37 | COc1ccc(/C=C2/S/C(=N/S(=O)(=O)Cc3ccccc3)NC2=O)cc1OC | inconclusive: 7.94 µM [inhibitor, full curve, poor fit]
38 | CCN1CCC2(CC1)N=C(c1ccc(F)cc1)C(=S)N2 | inactive
39 | COC(=O)c1ccc(COC(=O)c2ccc(SC)cc2OC)cc1 | inconclusive: 20 µM [inhibitor, partial curve]
40 | COc1ccc(Nc2nc(N)nc(CSC(=S)N3CCCCC3C)n2)cc1 (stereo unspecified) | inconclusive: 17.8 µM [inhibitor, partial curve, poor fit]
41 | CCOC(=O)N1CCN(C(=O)CSc2nnc(-c3ccccc3OC)o2)CC1 | inconclusive: 0.141 µM [inhibitor, full curve]

Source: PubChem BioAssay AID1460 (National Center for Advancing Translational Sciences (NCATS), 2008)
